Results reported in paper PMC12136788.
The other results are listed elsewhere or left out.

B1: chr11:51605143:51605144:+_ENSMUSG00000020386_ENSMUST00000020653|mus_mus|motif|central (ssRNA)
RNA: GGGAGUUCUACAGUCCGACGAUCGGGAAGCUGAUCUUUAUAAACGGUGAUGGAUUGAUGUGGGGUUAGAAACUGUAAAAACGGUCUGUGUGGAAUUAGAAAGCUAACAUUGUGAUAUUCAAACUUGAAUCAGUUUGCAAUUCCCAACAGAGGAUUGAGCAUCA
B2: chrX:132779699:132779700:+_ENSMUSG00000042712_ENSMUST00000048687|mus_mus|FALSE|FALSE (ssRNA)
RNA: GGGAGUUCUACAGUCCGACGAUCAUUGAAGCAAGCUGUCUCUUCUGGCCGCUGGCCUCUCGCACCACCGUCUGCAAGGCUAAAGGGAGCUGGUACCCAGAUGGAAACAAGGACCAGACUAGCAGGAUUUCUGCACACGUCGACCAACAGAGGAUUGAGCAUCA
B3: chr2:90620368:90620369:+_ENSMUSG00000008200_ENSMUST00000013759|mus_mus|FALSE|FALSE (ssRNA)
RNA: GGGAGUUCUACAGUCCGACGAUCAGUGGCUUAUACUUAUUGCCACAUACUUAGGGGGGAAUUUCUCAAAACCAAGGAUCUAAACACCUGCUGCUUGCUGCUGCUCCUGCCUGUGCUGCAAAGCGAGCAUUCUAGGGUGUGUGUCAACAGAGGAUUGAGCAUCA
B4: chr14:76904430:76904431:+_ENSMUSG00000022010_ENSMUST00000022587|mus_mus|mus_mus_mus_hu_True|28_108 (ssRNA)
RNA: GGGAGUUCUACAGUCCGACGAUCUGCUGGAAAAAAAACCCUCGUGGAAAAAAAGAGGGAACACCAGCAGCCUUGUAUAAGCUAGAUAAAAUCUUCUGGCUUUCCGCAGCUCAGGGCGAAACAGAAAACGGCAGCCCUAAUUUACAACAGAGGAUUGAGCAUCA
B5: chr5:130536139:130536140:+_ENSMUSG00000025532_ENSMUST00000026608|mus_hu|FALSE|FALSE (ssRNA)
RNA: GGGAGUUCUACAGUCCGACGAUCGCCAGGCCGGUUCUUUUCUUAUCUCUGUUGUUCUCGAGGAAAUUCCUCUAAGGUGAGCCAAGGUCAGUGGCUCAUUUUAACUUAGAGUAACUCUCUGGGGACUCUAACCAGACUUCCAACCAACAGAGGAUUGAGCAUCA
B6: 66883328_66934737_440_3pUTR_ENSMUSG00000029207_ENSMUST00000159786|mouse|control|control (ssRNA)
RNA: GGGAGUUCUACAGUCCGACGAUCUACCUUCUGCCCAUAGCGACAGUCAGCGUGUGAGUGGGGGACUCAGGAACUCCCAAGGACUCCAGAAACAGAGAGAGGGCUAGCUGGGCGCACUUAAGUCAGCAGGUGGGAAUCAGCUCUCAACAGAGGAUUGAGCAUCA
B7: chr1:186721242:186721243:-_ENSMUSG00000026620_ENSMUST00000027929|mus_mus|motif|central (ssRNA)
RNA: GGGAGUUCUACAGUCCGACGAUCAUAAUGAGUAUUAAAAAGAUGUGCCUUUUCUAGUGGCUUUACGUCGCAUACGUCACGGAUUAUGAAAGAAGGCAAAUGACCAGUUACAAAGCUCCACAUGACUGGAAUAAUGAUGUGGAACAACAGAGGAUUGAGCAUCA
B8: chr2:172803269:172803270:+_ENSG00000128708_ENST00000264108|hu_hu|motif|central (ssRNA)
RNA: GGGAGUUCUACAGUCCGACGAUCAAAAGCAGUUUCAUCAUCCCCAAAGAGUUGAUGGGUAUACUCAGGAAAGAAAGUUCGGAUGUCAUUUUCAAGAUCUUCAGGAAAACGAACUAAUUUUAGUUCAAUUGCUGUGUUGGUGUUCAACAGAGGAUUGAGCAUCA
B9: chr17:60770872:60770873:+_ENSG00000011028_ENST00000303375|hu_hu|hu_hu_hu_mus_True|8_68 (ssRNA)
RNA: GGGAGUUCUACAGUCCGACGAUCUCUUUAAAAAAAAAAAAAAAAAGACAAACAAUAAUAGCACAUUAUUUAAAAAAAGAACUACAAUAGAGGGUCCGCUUUGAGUUUUUGUUCACAUCGUCCUGCAACGCUGUCGCGGGACUGCAACAGAGGAUUGAGCAUCA
B10: chr4:54876292:54876293:-_ENSG00000109220_ENST00000263921|perfect_dup|FALSE|FALSE (ssRNA)
RNA: GGGAGUUCUACAGUCCGACGAUCCUAUAAAUAAAGUAAAUGCUAAUCUGGUCGAAAAAUCGGUGUCUUUGGUAAAAAUUCUAUGAGGAUGACAUAUUCCAUCAUGUUAUUCGUUUCACAUUUCCUUUUGCUCAGUCUCCAAUGCAACAGAGGAUUGAGCAUCA
B11: chr2:74706439:74706440:+_ENSMUSG00000027099_ENSMUST00000155844|mus_hu|FALSE|FALSE (ssRNA)
RNA: GGGAGUUCUACAGUCCGACGAUCUGUAGCUUCAUCACACCACUGAAGAUACAGCUCUGCAGUCAACAGCAUAUUGUUGACUAAUUCCAUGUAAGCUUUCAUUUCUGCUUUUUGGACUUCCUCCAGCCCAUCACUAAGAGAAUGCAACAGAGGAUUGAGCAUCA
B12: chr12:39687257:39687258:-_ENSG00000139116_ENST00000551264|hu_mus|FALSE|FALSE (ssRNA)
RNA: GGGAGUUCUACAGUCCGACGAUCAAACCCAAUCAAACAGCACUUAGAAAUUCAUACAGUCAUAAUGCAAGAUAGUCUCUCUUUACAGUCUACUUAUUUACAUGGGUUCCCACCACAAAUGAUAACAGUCUACCAAUGUGUGCACAACAGAGGAUUGAGCAUCA
B13: chr8:80577206:80577207:+_ENSG00000104435_ENST00000220876|hu_hu|FALSE|FALSE (ssRNA)
RNA: GGGAGUUCUACAGUCCGACGAUCUUUUUUUUAAUUUUUGAUUUUUUUUGUUUUUUUUUUUUUAUAAUGAGUUCUUUUUAAACCAUGUCAUACAUUCCCCAUCCUGAUAUCGCAUGAUCCAUUAUAAUAUAGGCAGGGGGAUUUCAACAGAGGAUUGAGCAUCA
B14: chr1:43162399:43162400:+_ENSG00000065978_ENST00000321358|hu_hu|motif|central (ssRNA)
RNA: GGGAGUUCUACAGUCCGACGAUCAUUCUGGUAAUUUUGCUGGUAAUUGCGUGGAGGACCCCUACGACGUGGAUAGCGUCGGUAAUGGUUACGGUCUGCUGCAUAUUUACUGCCUUGAACUGGAACACCACCAGGACCUGUAACCAACAGAGGAUUGAGCAUCA
B15: chr17:65740002:65740003:+_ENSG00000130935_ENST00000581375|hu_hu|hu_hu_hu_mus_False|38_88 (ssRNA)
RNA: GGGAGUUCUACAGUCCGACGAUCAACAAAUCUUUCUUCCCUGGACGCAAGAGUUCAUUCAUAUUAAAAAAAAUAUAUAUCCAUCAAGUUAGGUGUGUAAUAUCAGACUUUACUCCCAGCACUUUGGGAGGUGGAUCUCUGAGUCAACAGAGGAUUGAGCAUCA
B16: chr2:30816663:30816664:-_ENSMUSG00000026849_ENSMUST00000028200|mus_mus|motif|central (ssRNA)
RNA: GGGAGUUCUACAGUCCGACGAUCUCUGAUGCACAUUUUCAGGUGCUUGUACUCCAGGGGCAGGAAGGGGACAAAAUAAUCGGUGAGGUUCCGGUCAAUGAGGCUGCUGUGCCAGAAGCCACUGUUCUUGUUAUUGAAGACCGACAACAGAGGAUUGAGCAUCA
B17: chr7:54823571:54823572:-_ENSG00000132432_ENST00000352861|hu_mus|hu_hu_hu_mus_False|1_98 (ssRNA)
RNA: GGGAGUUCUACAGUCCGACGAUCUCCCAUGAUAGCAAAUCCUAUUGCUGUAGCCAUGGCAAUCUUCUGGAAUUCUUUUCUGUCGGGUUUGGUGCAUCUUUUAACCAGCCGAAUUGAGUCCUUUACAAACUGCCGGCUUGGCUCCAACAGAGGAUUGAGCAUCA
B18: chr17:49627581:49627582:-_ENSMUSG00000040260_ENSMUST00000057610|mus_mus|FALSE|FALSE (ssRNA)
RNA: GGGAGUUCUACAGUCCGACGAUCAUUCUCGUGUUGCCGGAGUUUAUCAAUCACUGGCUGGAUCCCCAGCAUCAGGAACUCAUACCGGAGAUGCAGGCGGAAUUCCAGGUUAUCCUCUCCAGCGCCAGCAUUGAGGACAGCAUUCAACAGAGGAUUGAGCAUCA
B19: chr7:31145180:31145181:-_ENSMUSG00000036957_ENSMUST00000046351|mus_hu|FALSE|FALSE (ssRNA)
RNA: GGGAGUUCUACAGUCCGACGAUCGAGCAGGGGCAGGCGGGAGAAGAGUGGGUCGGGUGGGAUUGUGGUCAGGCGGUUGGAGGUCAUGUCCAGCCGGGCCAGCUUGUGCAGGCGGGAAAAAGCGCCGGCGGGCACAGAAGCCAGCAACAGAGGAUUGAGCAUCA
B20: chr3:9412954:9412955:+_ENSG00000134077_ENST00000452837|hu_mus|hu_hu_hu_mus_False|1_28 (ssRNA)
RNA: GGGAGUUCUACAGUCCGACGAUCGGUUGAUAUCUCUUCUUUGAUGGCUGGAUUUUCAUAAUAGUCCAAGAUAUGUGAAUCUGAAGUGCUGCUGGCAUGCUUUUUCUUAACAUUUCUCUCAUCUGCUUUGUCUCCUUGUCCAUUCAACAGAGGAUUGAGCAUCA
B21: chr4:99801976:99801977:-_ENSG00000151247_ENST00000280892|hu_hu|FALSE|FALSE (ssRNA)
RNA: GGGAGUUCUACAGUCCGACGAUCAACACAUUUAUGGAUUCUGGGGAUGUGUACUGUAAUUCUUUGAUUGGGAUAGUGGAAACUCUAGCCAAAAAAAAAAAAAAAAAUGAACACAGAAGUACAAGACAAAGGCGAAUGAGACUUCAACAGAGGAUUGAGCAUCA
B22: chr7:65705844:65705845:+_ENSG00000169902_ENST00000304842|hu_mus|hu_hu_hu_mus_False|78_78 (ssRNA)
RNA: GGGAGUUCUACAGUCCGACGAUCAAACGGAUCUUUGUUACAUAAAUAAGGUGCCGGCUCCCCAUGCUUAACAAUGACCUCCAGAAGGAAGGCUUGCAUGGCAGAAUCUAGCACUUCAUCUGUGACACCCGCCUCAUCCAAGCGCAACAGAGGAUUGAGCAUCA

The binders below were run against T1, UNK ZnF1-3 (human, UniProt Q9C0B0 31-174) (assay: nsRBNS (natural sequence RNA bind-n-seq); RBNS binding buffer (assumed for nsRBNS): 25 mM Tris pH 7.5, 150 mM KCl, 3 mM MgCl2, 0.01% Triton X-100, 500 ug/ml BSA, 20 U/ml SUPERase-In, 4 C; UNK is unkempt and MSI1 is Musashi-1; names of the RNAs are library labels; protein concentration not given here; high values mean tight binding).
T1 sequence: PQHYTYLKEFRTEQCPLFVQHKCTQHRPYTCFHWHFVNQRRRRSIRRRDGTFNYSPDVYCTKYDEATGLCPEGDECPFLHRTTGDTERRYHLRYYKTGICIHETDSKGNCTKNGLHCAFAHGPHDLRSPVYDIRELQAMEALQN

Binder | binding signal
B1 | 1.15 enrichment R
B2 | 2.08 enrichment R
B3 | 0.907 enrichment R
B4 | 1.44 enrichment R
B5 | 0.876 enrichment R
B6 | 1.22 enrichment R
B7 | 0.692 enrichment R
B8 | 0.848 enrichment R
B9 | 2.2 enrichment R
B10 | 1.28 enrichment R
B11 | 0.571 enrichment R
B12 | 1.47 enrichment R
B13 | 1.55 enrichment R
B14 | 0.89 enrichment R
B15 | 1.28 enrichment R
B16 | 1.09 enrichment R
B17 | 0.639 enrichment R
B18 | 1.2 enrichment R
B19 | 1.81 enrichment R
B20 | 0.404 enrichment R
B21 | 2.58 enrichment R
B22 | 0.268 enrichment R
